Source: PubChem BioAssay AID445 (National Center for Advancing Translational Sciences (NCATS), 2006)
Screen size: about 110,000 compounds; about 40 (0.04%) were called active. Inconclusive results, whose numbers are uncertain, are shown with a selection of clear calls. The call rests on the fitted dose curve; in most records, active means well fitted curve in the direction sought with a large enough effect in the signal ratio (not every such curve was filed as active); inconclusive means small, poorly fitted or top-dose-only effect, or a change in a side signal; inactive means flat fitted curve, though single readings scatter; the % refers to the signal ratio. Potencies beside an inconclusive call are fits to weak or partial responses and may not hold up.
Potency means the concentration at half of the fitted maximal effect.

Test: IkB Signaling;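 on IkBa stabilization activation: 0% = basal untreated cells and 100% = reference inhibitor full response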
Details: ABC-DLBCL IkBa-CBG/CBR dual luciferase ratio (green luciferase fused to IkBa over red control in OCI-Ly3 lymphoma cells), 4 h; IkBa stabilization activation: at 57.1 µM (top of the series), scaled: untreated 0%, proteasome inhibitor 100% unless noted
Outline: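 In this assay, an IκBα–CBG68 fusion accumulates when IKK-driven degradation is blocked; native CBR normalizes for cell number. OCI-Ly3 cells were treated 4 h with compound and doxycycline, then green and red light read after Chroma-Glo addition.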
For `COc1ccc(NC(=O)c2ccccc2NS(C)(=O)=O)cc1OC`, the “IkBa stabilization activation” value was inactive: -0.0354%.
In the case of `COc1cc(NC(=O)C2CCCN2C(=O)C2CCC(C)CC2)cc(OC)c1OC` (stereo not given), the “IkBa stabilization activation” value is reported as inactive: 0.732%.
With `O=C(CC1N=C2c3ccccc3N=C(SCc3ccccc3F)N2C1=O)NCCc1ccccc1` (stereo not given) the IkBa stabilization activation was inconclusive: -0.0491% [signal inhibitor].
For `CN(C)c1ccc(CN(CC2CCCO2)C(=O)COc2ccccc2Cl)cc1` (stereo not given), the IkBa stabilization activation was inconclusive: 4.55% [signal inhibitor].
For `CC(C)OCCCNc1ncnc2c1[nH]c1ccc(F)cc12`, the IkBa stabilization activation was inconclusive: -1.8% [signal inhibitor].
For `[N-]=[N+]=CC(=O)COC(=O)c1ccccc1`, the IkBa stabilization activation was inactive: 0.617% [at 11.4 µM, scaled: untreated 0%, proteasome inhibitor 100%].
In the case of `Cc1oc(C)c2c(=O)ccc3c(c12)OC(N)=C(C#N)C3c1ccccc1Cl` (stereo not given), the “IkBa stabilization activation” value is reported as inactive: 4.08%.
For `Cc1ccccc1C(=O)N(Cc1ccc(N(C)C)cc1)Cc1ccco1`, the IkBa stabilization activation was inconclusive: 0.62% [signal inhibitor].
In the case of `CCCN(c1ccc(C(C)C)cc1)S(=O)(=O)c1ccc2c(c1)CCN2C(=O)CC`, the IkBa stabilization activation is reported as inconclusive: 7.93% [signal inhibitor].
With `NC[C@H](O)C1CCCCCCC1` the “IkBa stabilization activation” value was inactive: -2.11%.
With `O=C(c1cccs1)N(Cc1cccnc1)c1nc2c(Cl)cccc2s1` the IkBa stabilization activation was inconclusive: 2.07% [signal inhibitor].
For `O=C(c1ccc(C(F)(F)F)cc1)N1CCC(c2noc(-c3ccc(S(=O)(=O)N4CCCC4)cc3)n2)CC1`, the IkBa stabilization activation was inconclusive: 0.438% [signal inhibitor].
With `O=C(NC1CCCC1)c1ccc2c(c1)N(Cc1ccc(C(F)(F)F)cc1)C(=O)c1ccccc1S2` the “IkBa stabilization activation” value was inactive: 0.376%.
In the case of `Oc1ccc(-c2nc3ccccn3c2NCc2ccc3c(c2)OCO3)cc1`, the IkBa stabilization activation is reported as inconclusive: 3.96% [signal inhibitor].
In the case of `Cc1ccccc1Cn1c(=O)n(Cc2ccc3c(c2)OCO3)c(=O)c2oc3ccccc3c21`, the “IkBa stabilization activation” value is reported as inactive: -1.02%.
With `COc1ccc(-c2noc(CCC(=O)N(C)c3ccccc3C)n2)cc1` the IkBa stabilization activation was inconclusive: 16.3% [signal inhibitor].
For `CCC(C)(c1ccc(C(=O)OC)s1)c1ccc(C(=O)OC)s1`, the “IkBa stabilization activation” value was inactive: 3.84%.
With `O=C(Nc1ccccc1O)c1ccccc1O` the Potency was inconclusive: 20 µM [signal inhibitor, partial curve].
With `O=C(C1=C(O)C(=O)N(Cc2ccco2)C1c1cccnc1)c1cc2ccccc2o1` (stereo not given) the Potency was inconclusive: 25.1 µM [rising, partial curve].
For `O=C(Nc1ccc(-c2nc3cc(NC(=O)c4ccccc4Cl)ccc3o2)cc1)c1ccccc1Cl`, the “IkBa stabilization activation” value was inactive: 4.54%.
For `COc1ccc(Nc2c3c(nc4ccc(NC(=O)/C=C/c5cc(OC)c(OC)c(OC)c5)cc24)CCCC3)cc1OC`, the IkBa stabilization activation was inconclusive: -1.65% [signal inhibitor].
For `Cc1ccc2c(CC(=O)Nc3cccc(Cl)c3C)coc2c1`, the IkBa stabilization activation was inconclusive: -1.1% [signal inhibitor].
With `CCOC(=O)c1c(C)[nH]c(C(=O)C(C)OC(=O)c2cccc(OCc3c(C)noc3C)c2)c1C` (stereo not given) the IkBa stabilization activation was inconclusive: 3.74% [signal inhibitor].
In the case of `Cn1c(=O)n(C/C=C/c2ccccc2)c(=O)c2c1nc1n2CCN1c1ccc(F)cc1`, the IkBa stabilization activation is reported as inconclusive: 4.07% [signal inhibitor].
For `Cc1cccc(OCCCCn2c(C3CC(=O)N(c4ccccc4Cl)C3)nc3ccccc32)c1` (stereo not given), the “IkBa stabilization activation” value was inactive: -1.81%.
For `CCOC(=O)N1CCN(C(=O)c2ccc(CN(c3ccc(C)c(C)c3)S(C)(=O)=O)cc2)CC1`, the IkBa stabilization activation was inconclusive: -2.32% [signal inhibitor].
With `CCN1C(=O)c2ccccc2Sc2ccc(NC(=O)COc3ccc(Cl)cc3)cc21` the IkBa stabilization activation was inconclusive: 5.15% [signal inhibitor].
In the case of `O=C(C1CCCN(S(=O)(=O)c2cccc3cccnc23)C1)N1CCN(c2ccc(F)cc2)CC1` (stereo not given), the IkBa stabilization activation is reported as inconclusive: 12.3% [signal inhibitor].
For `COc1ccc(C(=O)CC2(O)C(=O)Nc3c(C)cccc32)c(OC)c1OC` (stereo not given), the “IkBa stabilization activation” value was inactive: 0.954%.
In the case of `Cc1ccccc1CS(=O)(=O)Cc1ccc(C(=O)NCc2ccccn2)o1`, the “IkBa stabilization activation” value is reported as inactive: 1.77%.
For `CCOc1ccc(-n2c(SCC(=O)Nc3cccc(Cl)c3)nc3c(oc4ccccc43)c2=O)cc1`, the IkBa stabilization activation was inconclusive: 15% [signal inhibitor].
In the case of `CCOc1ccc(-c2cnc(NCc3ccc(C(F)(F)F)cc3)n2C)cc1`, the “IkBa stabilization activation” value is reported as inactive: -0.855%.
For `O=S(=O)(C/C(=C/CO)S(=O)(=O)c1ccccc1)c1ccccc1`, the Potency was inconclusive: 2 µM [signal inhibitor, partial curve].
For `c1cc2[nH]snc2c2nc(C3CC3)nc12`, the IkBa stabilization activation was inconclusive: 0.503% [signal inhibitor].
With `Cc1cccc(OCC(=O)NC(Cc2c[nH]c3ccccc23)C(=O)O)c1C` (stereo not given) the IkBa stabilization activation was inconclusive: 1.37% [signal inhibitor].
For `COc1ccc(CCNC(=O)C(=O)NCC(c2ccc3c(c2)OCO3)N2CCOCC2)cc1` (stereo not given), the “IkBa stabilization activation” value was inactive: 0.23%.
For `CN1CCN(c2ccccc2NC(=O)c2ccc(-c3ccccc3)cc2)CC1`, the IkBa stabilization activation was inconclusive: 0.285% [signal inhibitor].
For `Cc1nc2cnc(Nc3ccccc3)nc2n(CCc2ccccc2)c1=O`, the IkBa stabilization activation was inactive: -0.137% [at 11.4 µM, scaled: untreated 0%, proteasome inhibitor 100%].
In the case of `COc1ccc(-n2cc(-c3ccccc3)c3c(NC4CCCCC4)ncnc32)cc1`, the IkBa stabilization activation is reported as inconclusive: -0.436% [signal inhibitor].
With `Cc1cc(C)nc(SCc2nnc(SCC(=O)Nc3ccc(C)c(C)c3)n2Cc2ccco2)n1` the IkBa stabilization activation was inconclusive: 3.32% [signal inhibitor].
In the case of `CCn1c(C(=O)Nc2ccsc2C(=O)OC)cc2sc(Cl)cc21`, the Potency is reported as inconclusive: 5.01 µM [signal inhibitor, full curve].
For `CCCn1c(NCc2cccc(OC)c2O)nc2ccccc21`, the “IkBa stabilization activation” value was inactive: 4.71%.
With `COc1ccc2cc3cc(C(=O)NCc4ccccc4OC)oc3nc2c1` the IkBa stabilization activation was inconclusive: 4.49% [signal inhibitor].
With `O=C1c2ccccc2C(Nc2ccc3c(c2)OCO3)N1Cc1ccc2c(c1)OCO2` (stereo not given) the “IkBa stabilization activation” value was inactive: 0.642%.
With `CN1CCN(C(=O)c2ccc3c(=O)n(Cc4ccc(Cl)cc4)c(=S)[nH]c3c2)CC1` the IkBa stabilization activation was inconclusive: 5.43% [signal inhibitor].
With `OC(COCc1ccc(Cl)cc1)CN1CCN(CC(O)COCc2ccc(Cl)cc2)CC1` (stereo not given) the IkBa stabilization activation was inconclusive: 13.8% [signal inhibitor].
In the case of `CC(=O)c1ccc(N2CCN(C(=O)CCCCn3c(=O)[nH]c4ccsc4c3=O)CC2)cc1`, the IkBa stabilization activation is reported as inconclusive: -0.717% [signal inhibitor].
With `O=C(Nc1cccc(C(F)(F)F)c1)c1cc(-c2ccc3c(c2)OCCO3)on1` the “IkBa stabilization activation” value was inactive: -1.02%.
In the case of `COc1ccccc1-c1cc(C(=O)Nc2cc(C)nn2-c2ccccc2)no1`, the Potency is reported as inconclusive: 12.6 µM [signal inhibitor, partial curve].
In the case of `Cn1nc(-c2ccc(Cl)cc2)c2cc(C(=O)NCc3ccco3)sc21`, the IkBa stabilization activation is reported as inconclusive: 1.86% [signal inhibitor].
In the case of `COc1ccc(Cn2c(=O)c3cccnc3n(CC(=O)Nc3c(C)cc(C)cc3C)c2=O)cc1`, the “IkBa stabilization activation” value is reported as inactive: 1.68%.
In the case of `CCc1cnc2c(c1SCC(=O)c1ccc(Cl)cc1)c(=O)n(C)c(=O)n2C`, the IkBa stabilization activation is reported as inconclusive: 0.53% [signal inhibitor].
With `CCn1c(Sc2nc(C)nc3scc(-c4cccs4)c23)n[nH]c1=O` the IkBa stabilization activation was inconclusive: 8.03% [signal inhibitor].
For `O=C(NCCc1ccc(F)cc1)C(=O)NCC(c1ccco1)S(=O)(=O)c1cccs1` (stereo not given), the IkBa stabilization activation was inconclusive: -3.44% [signal inhibitor].
With `COc1ccc(S(=O)(=O)n2nc(C)c(S(=O)(=O)N3CCC(C)CC3)c2C)cc1OC` the IkBa stabilization activation was inconclusive: 0.0331% [signal inhibitor].
For `Cc1nc2ccccc2c2oc(C(=O)NCCN3CCCCC3C)cc12` (stereo not given), the IkBa stabilization activation was inconclusive: 13.7%.
In the case of `c1ccc(Cc2nn3c(COc4ccccc4)nnc3s2)cc1`, the “IkBa stabilization activation” value is reported as inactive: 2.89%.
With `CCCCCn1c(SCC(=O)OCC)nc2cc(C(=O)NCc3ccco3)ccc2c1=O` the “IkBa stabilization activation” value was inactive: 0.445%.
In the case of `CCc1nnc(NC(=O)CCC(=O)N2CCN(C3CCCCC3)CC2)s1`, the IkBa stabilization activation is reported as inconclusive: 12.8%.
With `COc1cc(OC)cc(C(=O)N2CC(=O)Nc3ccc(Cl)cc3C2c2ccccc2)c1` (stereo not given) the IkBa stabilization activation was inconclusive: 6.09% [signal inhibitor].
In the case of `N#Cc1c(N)nc2c(c1-c1ccco1)CCCCC2`, the “IkBa stabilization activation” value is reported as inactive: -0.887%.
With `CCOc1ccccc1NC(=O)C(CC)Sc1nc2ccncc2[nH]1` (stereo not given) the IkBa stabilization activation was inconclusive: 0.533% [signal inhibitor].
In the case of `COc1ccc(NCc2cc3cc4c(cc3n(CC(=O)Nc3cc(C)ccc3C)c2=O)OCCO4)cc1`, the Potency is reported as inconclusive: 31.6 µM [rising, single point].
For `CC(C)c1ccc(NS(=O)(=O)c2ccc3nc(-c4ccccc4)[nH]c3c2)cc1`, the IkBa stabilization activation was inconclusive: 3.79% [signal inhibitor].
For `CCOc1ccc(CN2CCc3nc(Nc4ccc5c(c4)OCCO5)ncc3C2)cc1`, the IkBa stabilization activation was inconclusive: 6.68% [signal inhibitor].
In the case of `COc1ccc(NC(=O)c2ccc3c(c2)sc2nc(-c4ccc(OC)cc4)cn23)cc1`, the IkBa stabilization activation is reported as inconclusive: 7.8% [signal inhibitor].
For `O=C(C1CCN(S(=O)(=O)c2cccc3nsnc23)CC1)N1CCc2ccccc2C1`, the IkBa stabilization activation was inconclusive: 0.489% [signal inhibitor].
For `Cc1ccc(-c2cn(-c3cccc(Cl)c3)c(S(=O)(=O)CC(=O)Nc3ccccc3F)n2)cc1`, the IkBa stabilization activation was inconclusive: 3.31% [signal inhibitor].
In the case of `CCOc1ccc(C2CC(=O)N(c3cccc(F)c3)C3=C2C(=O)OC3)cc1` (stereo not given), the IkBa stabilization activation is reported as inconclusive: 1.75% [signal inhibitor].
For `Cc1cccc(N2CCN(S(=O)(=O)c3csc(C(N)=O)c3)CC2)c1C`, the IkBa stabilization activation was inconclusive: -2.24% [signal inhibitor].
